Reference: patent US5459237A, “Peptide compositions and uses therefor” (priority 1992, dated 1995)
Part of at least one peptide drawing is inferred or uncertain, most often the ends. Ends that are not written are not given here.

Experiments:
Assay type in all cases: cell-based
S. aureus ATCC 25923 = experiment: Antibacterial assay, broth microdilution MIC; conditions: Mueller Hinton broth, 16-20 hours at 37° C., lowest concentration producing a clear well
E. coli ATCC 25922 = experiment: Antibacterial assay, broth microdilution MIC; conditions: Mueller Hinton broth, 16-20 hours at 37° C., lowest concentration producing a clear well
[1] = test system: Acanthamoeba polyphaga trophozoites; experiment: Antiparasitic assay; conditions: ppyg medium, 30° C.; for MAC (Minimum Amoebicidal Concentration), Trophozoites: minimum concentration necessary to kill the trophozoites

Substance | MIC (S) (S. aureus ATCC 25923) | MIC (E) (E. coli ATCC 25922) | MIC (Minimum Inhibitory Concentration), Trophozoites [1] | MAC (Minimum Amoebicidal Concentration), Trophozoites [1]
KFAGKIAKFAGKIAKFAGKIA-NH2 [Peptide (SEQ ID NO:35), (Lys Phe Ala Gly Lys Ile Ala)3 --NH2] | 32 µg/mL | 8,16 μg/ml |  | 
KFAKKFAKFAKKFAKFAKKFA-NH2 [Peptide (SEQ ID NO:63), (Lys Phe Ala Lys Lys Phe Ala)3 --NH2] | 4,8 μg/ml | 4,8 μg/ml |  | 
KFAKKIAKFAKKIAKFAKKIA-NH2 [Peptide (SEQ ID NO:64), (Lys Phe Ala Lys Lys Ile Ala)3 --NH2] | 4 µg/mL | 4 µg/mL |  | 
KFARIAGKFARIAGKFARIAG-NH2 [Peptide (SEQ ID NO:12), (Lys Phe Ala Arg Ile Ala Gly)3 --NH2] | 32 µg/mL | 8 µg/mL |  | 
KIAGAIAKIAGKIAKIAGKIA-NH2 [Peptide (SEQ ID NO:58)] | 8 µg/mL | 4,8 μg/ml |  | 
KIAGKFAKIAGKFAKIAGKFA-NH2 [Peptide (SEQ ID NO:36), (Lys Ile Ala Gly Lys Phe Ala)3 --NH2] | 32 µg/mL | 8,16 μg/ml |  | 
KIAGKIAKIAGAIAKIAGKIA-NH2 [Peptide (SEQ ID NO:59)] | 8 µg/mL | 8 µg/mL |  | 
KIAGKIAKIAGKIAKIAGAIA-NH2 [Peptide (SEQ ID NO:60)] | 16 µg/mL | 2 µg/mL |  | 
KIAGKIAKIAGKIAKIAGKIA-NH2 [Peptide (SEQ ID NO:1), (Lys Ile Ala Gly Lys Ile Ala)3 --NH2] | 4,8 μg/ml | 2,4 μg/ml | 20 | 25
KIAGKIAKIAGRIAKIAGKIA-NH2 [Peptide (SEQ ID NO:46)] | 16 µg/mL | 8 µg/mL |  | 
KIAGKIGKIAGKIGKIAGKIG-NH2 [Peptide (SEQ ID NO:3), (Lys Ile Ala Gly Lys Ile Gly)3 --NH2] | 256 µg/mL | 32 µg/mL |  | 
KIAGRIAKIAGRIAKIAGRIA-NH2 [Peptide (SEQ ID NO:29), (Lys Ile Ala Gly Arg Ile Ala)3 --NH2] | 32 µg/mL | 8 µg/mL |  | 
KIAKIAGKIAKIAGKIAKIAG-NH2 [Peptide (SEQ ID NO:2), (Lys Ile Ala Lys Ile Ala Gly)3 --NH2] | 8,16 μg/ml | 2,4 μg/ml |  | 
KIAKIAGKIAKIAGKIAKIAGKIA-NH2 [Peptide (SEQ ID NO:43), Lys Ile Ala (Lys Ile Ala Gly Lys Ile Ala)3 --NH2] | 4 µg/mL | 4 µg/mL |  | 
KIAKIFGKIAKIFGKIAKIFG-NH2 [Peptide (SEQ ID NO:10), (Lys Ile Ala Lys Ile Phe Gly)3 --NH2] | 32 µg/mL | 64 µg/mL |  | 
KIARIAGKIARIAGKIARIAG-NH2 [Peptide (SEQ ID NO:15), (Lys Ile Ala Arg Ile Ala Gly)3 --NH2] | 4,8 μg/ml | 4,8 μg/ml |  | 
KIASKAGKIAGKIAKVALKAL-NH2 [Peptide (SEQ ID NO:53)] | 16 µg/mL | 4 µg/mL |  | 
KLAGKLAKLAGKLAKLAGKLA-NH2 [Peptide (SEQ ID NO:4), (Lys Leu Ala Gly Lys Leu Ala)3 --NH2] | 16 µg/mL | 8 µg/mL |  | 
KLASKAGKIAGKIAKVALKAL-NH2 [Peptide (SEQ ID NO:44)] | 4 µg/mL | 2 µg/mL | 25 | 40
KLLKALGKLLKALGKLLKALG-NH2 [Peptide (SEQ ID NO:7), (Lys Leu Leu Lys Ala Leu Gly)3 --NH2] | 128 µg/mL | 256 µg/mL |  | 
KLLSKFGKLLSKFGKLLSKFG-NH2 [Peptide (SEQ ID NO:24), (Lys Leu Leu Ser Lys Phe Gly)3 --NH2] | 32 µg/mL | 32 µg/mL |  | 
KLLSKLGKLLSKLGKLLSKLG-NH2 [Peptide (SEQ ID NO:23), (Lys Leu Leu Ser Lys Leu Gly)3 --NH2] | 32,64 μg/ml | 32 µg/mL |  | 
KMASKAGKIAGKIAKVALKAL-NH2 [Peptide (SEQ ID NO:52)] | 16 µg/mL | 8,16 μg/ml |  | 
KVAGKIAKVAGKIAKVAGKIA-NH2 [Peptide (SEQ ID NO:31), (Lys Val Ala Gly Lys Ile Ala)3 --NH2] | 256 µg/mL | 32 µg/mL |  | 
RIAGKIARIAGKIARIAGKIA-NH2 [Peptide (SEQ ID NO:39), (Arg Ile Ala Gly Lys Ile Ala)3 --NH2] | 16 µg/mL | 8 µg/mL |  | 
RIAGRIARIAGRIARIAGRIA-NH2 [Peptide (SEQ ID NO:30), (Arg Ile Ala Gly Arg Ile Ala)3 --NH2] | 16 µg/mL | 8 µg/mL |  | 
